Measured values published in the supplement of paper PMC3334620.
The full ranking holds about 33,000 sequences; the median of “E-score (-0.5 to 0.5)” is about -0.012, and the highest 2% start at about 0.27. The list shows a part of the results.

target: T1, Vhr1 (UniProt P40522); experiment: PBM E-score (8-mer binding enrichment) (E-score (-0.5 to 0.5)); higher = stronger / more preferred TF binding; most listed sequences are background and not binding sites; settings: protein concentration: 200 nM; construct: GST-full length
T1 sequence: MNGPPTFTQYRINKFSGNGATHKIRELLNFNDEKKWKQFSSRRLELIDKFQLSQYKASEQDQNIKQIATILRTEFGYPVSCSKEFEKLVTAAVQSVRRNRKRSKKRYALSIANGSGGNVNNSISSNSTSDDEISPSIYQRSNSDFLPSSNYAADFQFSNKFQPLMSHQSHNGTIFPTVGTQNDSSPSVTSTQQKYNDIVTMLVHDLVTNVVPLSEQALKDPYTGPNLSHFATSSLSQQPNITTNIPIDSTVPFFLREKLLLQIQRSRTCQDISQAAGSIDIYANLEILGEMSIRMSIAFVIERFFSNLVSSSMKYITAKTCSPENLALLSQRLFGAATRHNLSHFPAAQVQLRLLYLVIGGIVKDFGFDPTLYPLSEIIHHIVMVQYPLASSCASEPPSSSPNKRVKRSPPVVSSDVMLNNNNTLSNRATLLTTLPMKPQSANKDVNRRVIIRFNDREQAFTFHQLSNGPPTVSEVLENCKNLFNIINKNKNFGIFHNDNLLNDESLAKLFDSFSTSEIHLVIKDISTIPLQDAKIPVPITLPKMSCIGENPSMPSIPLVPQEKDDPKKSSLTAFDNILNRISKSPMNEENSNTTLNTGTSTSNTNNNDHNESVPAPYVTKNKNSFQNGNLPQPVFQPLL
Method in brief: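 Bound GST-tagged yeast transcription factors, applied at about 100-200 nM to double-stranded universal all-10-mer Agilent arrays, were detected with fluorescent anti-GST. Scans were normalised with masliner. A modified Wilcoxon-Mann-Whitney statistic, the E-score, was assigned to each ungapped eight-base word pooled with its reverse complement by the Universal PBM Analysis Suite.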

In order of falling “PBM E-score” value:
1. CTGGAGTC  0.356
2. CATCACAC  0.269
3. ATCGCGCG  0.265
4. GTCACGGA  0.257
5. GGGTATGA  0.243
6. ACTAATTA  0.211
7. TCCATGCA  0.201
8. GCTAGTGA  0.2
9. GATTCGAA  0.195
10. ATACATGC  0.194
11. ACCCACGT  0.192
12. GGTCTGTA  0.191
13. AGGCGTAT  0.189
14. AGTGGTTG  0.183
15. CCCGGCGG  0.182
16. ATAGACAC  0.182
17. ATTCATGA  0.181
18. GCTAACAC  0.175
19. CTCGTTGC  0.171
20. TACTGGGA  0.164
21. ATATGAAC  0.163
22. ATCGTCAC  0.163
23. CTCGCACC  0.158
24. GTACACAA  0.15
25. TACATTAA  0.144
26. ATATCCAC  0.142
27. ATATGGGG  0.141
28. ATCGATCA  0.14
29. CGCCTAAC  0.139
30. TCATTAAA  0.134
31. ATCGTTGA  0.132
32. ACATGGTA  0.132
33. ATGAACAA  0.125
34. CAAACCCA  0.125
35. CTATGACA  0.123
36. AAATCAGC  0.121
37. CATGCCGG  0.121
38. GTACAACA  0.115
39. CGGCGCAG  0.113
40. CGTATCCA  0.113
41. TCAAGTCA  0.111
42. GAGCGAGA  0.111
43. ACTGTAGG  0.11
44. CGGGATTA  0.107
45. CAGATTGG  0.102
46. ACCTTACC  0.0981
47. AGATACAC  0.0945
48. TACTGTCA  0.0937
49. CCATTATA  0.0929
50. AATGGCTA  0.091
51. ACAACTAA  0.0898
52. TGTGTTAA  0.0871
53. ATGGTTTA  0.0862
54. AACATACG  0.0846
55. CCACCGAA  0.0828
56. GTGTAATA  0.0802
57. ATGAGACC  0.0789
58. ACGATGGC  0.0749
59. AGTACCAC  0.0731
60. TCACCTGA  0.0724
61. AGTAAATC  0.0723
62. GTTGAATA  0.0699
63. ACATTTTC  0.0698
64. AGATTTAG  0.0658
65. AATTTGCG  0.0626
66. CATGCAGG  0.0608
67. GTCCGGCA  0.0604
68. AAGATTGA  0.0603
69. AACACGCC  0.0583
70. CGAGCCTC  0.0576
71. ACTCTACA  0.0564
72. GTTAGCAA  0.0562
73. CCAGTGAC  0.0549
74. AATAGGCA  0.0547
75. AACCAGGC  0.0532
76. ACCGAAGC  0.053
77. ACCGGCAT  0.0508
78. ACGGCGTG  0.0502
79. AAGATACA  0.0496
80. AGTGATGC  0.0449
81. TCATCGGA  0.0448
82. GAATAGTA  0.0443
83. CGCGTTCA  0.0408
84. CACCAAGC  0.0401
85. GTTATGGA  0.038
86. CTCCAAGA  0.0375
87. ATTAAAAA  0.0365
88. GTCTGAAC  0.0334
89. CACTGGAA  0.0326
90. ACGCCATC  0.0312
91. CCCATAAG  0.03
92. GATCATCA  0.0291
93. AAACGGTA  0.0278
94. GCGGGCCA  0.0258
95. CGGACAAG  0.0244
96. ACCTAATA  0.0232
97. GTACGGCA  0.0215
98. CGAATGTC  0.0181
99. AGTGCGAC  0.0175
100. AGGCAACC  0.016
101. CAACAATA  0.0134
102. ACATGGGG  0.0107
103. GGCCTGAC  0.00742
104. ACCAATAG  0.00571
105. CAACGCAA  0.00391
106. AATTATCC  0.00222
107. CCATGGAC  0.00162
108. CACCATCC  -0.00126
109. GGACATGA  -0.00186
110. GCCGATCA  -0.00422
111. ATTCGGCG  -0.00502
112. GCAACCCC  -0.00688
113. ATAAATGG  -0.00695
114. CGAGTTTC  -0.00759
115. GCCAGCCC  -0.00869
116. CACCGACG  -0.012
117. CACTCCCG  -0.0123
118. CTCTCCTA  -0.0133
119. ACATTTAT  -0.0139
120. CGTCTTGA  -0.0142
121. CTTAGTAA  -0.0159
122. CTTGACAA  -0.0176
123. CACTCCGA  -0.0188
124. ACGGACTC  -0.0189
125. CAACGGAA  -0.0217
126. ACTGGAAA  -0.0251
127. TCGGGGCA  -0.0261
128. AGGATTCA  -0.0305
129. GCTGTACA  -0.0316
130. CTACCGAA  -0.0324
131. CTCTCTGC  -0.0337
132. AGATTGCT  -0.0342
133. CACAAATG  -0.0359
134. GGCGAACA  -0.0374
135. GCGGACCC  -0.0401
136. ACTGAGAA  -0.0436
137. GAACAATC  -0.0437
138. ATCAAAGG  -0.0468
139. ACTAGACG  -0.048
140. CACCTTAG  -0.0528
141. ATGTGGGA  -0.0537
142. CCGCAGGA  -0.0544
143. CCGGTTAG  -0.0555
144. GAGGCTAC  -0.056
145. GGATAAGA  -0.0576
146. CTCTTGTC  -0.0607
147. TAGCAACA  -0.0609
148. CGCCGATA  -0.0619
149. CCAGAAGG  -0.0621
150. GAACATTC  -0.0635
151. CGTACCTC  -0.0644
152. GGACGCGA  -0.0696
153. CCAACCGG  -0.0705
154. GAAATGTC  -0.0746
155. AGCATTAG  -0.077
156. AAGCTCGT  -0.0771
157. AAAGGCGC  -0.0831
158. CGAAAGAA  -0.0849
159. CTAAGAAG  -0.0875
160. CCGTAAAC  -0.0934
161. ACGTTTTC  -0.0937
162. CGCTAACC  -0.0975
163. ACCCTAGG  -0.098
164. AACAGCGA  -0.098
165. ATCGTCAA  -0.0989
166. AGGCGAGC  -0.1
167. GCTCTTTA  -0.1
168. GCAGGAAC  -0.1
169. AGCACGCT  -0.102
170. AGTGCTTG  -0.102
171. TCGTGAGA  -0.104
172. AAAGGTCG  -0.106
173. ATTCTTTC  -0.107
174. AAGAAGTA  -0.108
175. GAATAGCC  -0.117
176. ACGCCTCT  -0.119
177. ACCCTCAT  -0.12
178. CAGTCCCC  -0.122
179. ATGACGAG  -0.122
180. TGGACCAA  -0.132
181. CTTCGCCC  -0.136
182. GTGCTTAA  -0.136
183. GACCTCCC  -0.142
184. CGTCGTCC  -0.143
185. GACAAGCA  -0.143
186. AGGCGACC  -0.143
187. AGCCTCCT  -0.145
188. AAGCACCA  -0.146
189. AGCTGTAT  -0.146
190. ACCCGAGG  -0.147
191. CGAGGGTC  -0.149
192. GAGGCGAA  -0.15
193. AAATGAGC  -0.154
194. AAGAATTC  -0.155
195. AACAGAAA  -0.157
196. ACGAAGGA  -0.158
197. GAGCGACC  -0.162
198. AGCGAGGG  -0.163
199. ATCCTAAA  -0.166
200. ACGAAGGC  -0.167
201. CAAGGGCA  -0.168
202. ACCGGGCT  -0.171
203. TAGGATAA  -0.173
204. ATTTGCCG  -0.174
205. AATGCCCG  -0.179
206. ACATTAGG  -0.191
207. ACAGAAGT  -0.197
208. CCAAAAGA  -0.201
209. ATGGCCAA  -0.206
210. AAGGCGAA  -0.22
211. CTTACGTC  -0.22
212. GAAGGACC  -0.221
213. AGAGAGCG  -0.237
214. ATGGGGGC  -0.242
215. ACCCCCCT  -0.256
216. AGTTCCTC  -0.258
217. CCGCTAGC  -0.266
218. CCTCTGCC  -0.286
219. TCTTAAAA  -0.354
